Experimental data reported in PubChem BioAssay AID1347071 (National Center for Advancing Translational Sciences (NCATS), 2019).
In all, about 410,000 compounds went through this assay and about 260 (0.063%) were called active. Inconclusive means that the source gave no clear call. Such entries were picked first, then a sample of the others. Calls follow the shape of the dose curve; as a rule, active = well fitted activation curve with a large enough effect; inconclusive = small, poorly fitted or top-dose-only effect; inactive = no such curve, though single readings can be large or run the other way. No potency is given beside an inconclusive call; the fits are too rough.

Test: qHTS for compounds that reverse cellular toxicity of Amyloid beta (A-beta) peptide in yeast: Primary Screen; also: nearly all actives have a fitted effect of over 55% in size
Conditions: yeast expressing A-beta42, growth rescue, OD600, 48 h; growth rescue: at 46.1 µM (top of the series), 0% DMSO, 100% iron-clioquinol control
Summary of the method: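 Growth rescue measured by 600 nm absorbance after 48 h yeast culture at 30 C with compound. Values normalized between DMSO and an equimolar ferric chloride plus clioquinol control.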
Potency is read from the fitted curve at half-maximal effect; tags tell the direction and shape of the fitted curve.

Structure (SMILES)	Potency	growth rescue
O=C(Nc1ccc(F)c(F)c1)C(c1ccccc1)N1Cc2ccccc2C1=O (centres undefined)	inconclusive [activator, partial curve, poor fit]	–
Cc1cc(C)cc(C(=O)NC(=S)Nc2cccnc2)c1	inconclusive [activator, partial curve, poor fit]	–
COc1cccc(NC(=O)CN(C)C(=O)C23CC4CC(CC(Cl)(C4)C2)C3)c1	inconclusive [activator, partial curve, poor fit]	–
CCCn1cnc2scc(-c3ccc(C)c(C)c3)c2c1=O	inconclusive [activator, single point]	–
CN1C(=O)c2ccccc2Sc2ccc(NC(=O)N3CCN(c4ccc(F)cc4)CC3)cc21	inconclusive [activator, partial curve]	–
Clc1cccc(CNc2ccn3nc(-c4cccc(Cl)c4)cc3n2)c1	inconclusive [activator, single point]	–
CC(C)(C)C(=O)NC(=S)NNC(=O)c1ccc(Cl)cc1Cl	–	inactive: -71%
NC(=O)c1ccsc1NC(=O)CS(=O)(=O)c1ccc(Cl)cc1	inconclusive [activator, partial curve, poor fit]	–
CCN(C(=O)COC(=O)c1ccco1)c1cccc2ccccc12	–	inactive: 9.8%
CCc1cccc(C)c1NC(=O)CSc1n[nH]c(-c2ccccc2)n1	–	inactive: 6.94%
CC1CN(C(=O)N2CCC(C(=O)NCc3ccccc3F)CC2)c2cc(Cl)ccc2O1 (centres undefined)	inconclusive [activator, single point]	–
O=C(CCC1COc2ccccc2O1)Nc1ccc(Cl)cn1 (centres undefined)	inconclusive [activator, full curve]	–
COc1ccc(Cl)cc1NC(=O)Cn1c(=O)n(Cc2ccc(F)cc2)c(=O)c2cccnc21	–	inactive: -13.9%
CCOC(=O)c1ccc(NC(=O)Cn2cccc2)cc1	inconclusive [activator, partial curve]	–
CCc1ccc(C(=O)NC(=S)Nc2ccccc2N2CCOCC2)cc1	inconclusive [activator, single point]	–
CC(NC(=O)CSCc1ccc(Br)cc1)c1ccccc1 (centres undefined)	inconclusive [activator, single point]	–
Fc1cccc(NC(=S)NCCc2ccccc2)c1	inconclusive [activator, partial curve, poor fit]	–
CCOC(=O)c1cnc(-n2nc(C)cc2C)nc1NC	–	inactive: 22.9%
Cn1nnnc1SCCCNCc1cc(Br)ccc1OCc1ccccc1F	–	inactive: 14.1%
COc1ccc(C)cc1NC(=O)CN(c1ccc(F)cc1)S(C)(=O)=O	inconclusive [activator, partial curve, poor fit]	–
CN1C(=O)[C@H]2[C@@H](c3ccc(C(F)(F)F)cc3)N[C@]3(CCCN(Cc4ccc(Br)cc4)C3=O)[C@H]2C1=O	inconclusive [activator, single point]	–
CCOC(=O)C1CCCN(C(=S)Nc2ccc(Nc3ccccc3)cc2)C1 (centres undefined)	inconclusive [activator, single point]	–

Structure (SMILES)	Potency	growth rescue
Cc1cc(=O)c2cc(C(=O)Nc3ccc(F)cc3)ccc2[nH]1	–	inactive: -23.5%
O=C(Nc1nc2ccccc2s1)C1CC(=O)N(c2ccccc2)C1 (centres undefined)	inconclusive [activator, single point]	–
O=C(c1ccccc1Cl)N1CCC(c2nc3ccccc3s2)CC1	–	inactive: 5.19%
CN(Nc1cccc(Cl)c1)c1cccc(Cl)c1	inconclusive [activator, partial curve]	–
CC1=C(C(=O)N(C(C)C)C(C)C)CC(CC(=O)NC2CCCC2)C(=O)N1Cc1ccc(F)cc1 (centres undefined)	–	inactive: -4.83%
N/C(Cc1ccc([N+](=O)[O-])cc1)=N\OC(=O)c1ccc(Br)o1	inconclusive [activator, partial curve, poor fit]	–
Cc1cccc(Nc2nc3ccccc3s2)c1C	inconclusive [activator, partial curve, poor fit]	–
Cn1nnc(NC(=S)NC(=O)c2cccc3c(Cl)cccc23)n1	inconclusive [activator, partial curve]	–
Cc1cccc(-n2c(C)nc3cc(C(=O)NCCN4CCOCC4)ccc32)c1	–	inactive: -1.62%
O=C(CSc1ncnc2sccc12)Nc1ccccc1F	inconclusive [activator, partial curve, poor fit]	–
COc1ccccc1C(=O)NCCSc1c(C)[nH]c2ccccc12	inconclusive [activator, single point]	–
COc1ccccc1N1CCN(C(=O)c2ccc3c(c2)N(Cc2cc(C)ccc2C)C(=O)c2ccccc2S3(=O)=O)CC1	–	inactive: -0.461%
CCCn1c(C(=O)OC)cc2c1ccn2-c1ccc(F)cc1	inconclusive [activator, single point]	–
O=C(Cn1cnc2ccccc2c1=O)c1c[nH]c2ccccc12	inconclusive [activator, single point]	–
O=C(COC(=O)CNC(=O)C1CCCCC1)Nc1ccc2ccccc2c1	inconclusive [activator, partial curve, poor fit]	–
CCN(CC)c1ccc(-c2nn3c(-c4cccnc4)nnc3s2)cc1	–	inactive: -19.3%
CCOC(=O)c1c(CSc2ccccc2)oc2ccc(O)cc12	–	inactive: -72.5%
O=C1CC(c2ccsc2)c2cc3c(cc2N1)OCCO3 (centres undefined)	inconclusive [activator, partial curve, poor fit]	–
CCCCC(=O)NC(c1ccco1)c1cc(Cl)c2cccnc2c1O (centres undefined)	inconclusive [activator, single point]	–
CC(C)OCCCn1c(-c2ccc(Br)cc2)c[nH]c1=S	inconclusive [activator, single point]	–
Cc1ccc(N2CN(CCC3=CCCCC3)CNC2=S)cc1	inconclusive [activator, partial curve, poor fit]	–
O=C(COc1ccccc1Cl)NC(=S)Nc1ccccc1N1CCCC1	inconclusive [activator, partial curve, poor fit]	–
